# Source: the supplement of paper PMC3334620
# In all, about 33,000 sequences were measured (“E-score (-0.5 to 0.5)”: median about -0.035, highest 2% from about 0.35 on). The list shows a part of the results.
# Biological target: T1, Pdr3 (UniProt P33200)
# T1 sequence: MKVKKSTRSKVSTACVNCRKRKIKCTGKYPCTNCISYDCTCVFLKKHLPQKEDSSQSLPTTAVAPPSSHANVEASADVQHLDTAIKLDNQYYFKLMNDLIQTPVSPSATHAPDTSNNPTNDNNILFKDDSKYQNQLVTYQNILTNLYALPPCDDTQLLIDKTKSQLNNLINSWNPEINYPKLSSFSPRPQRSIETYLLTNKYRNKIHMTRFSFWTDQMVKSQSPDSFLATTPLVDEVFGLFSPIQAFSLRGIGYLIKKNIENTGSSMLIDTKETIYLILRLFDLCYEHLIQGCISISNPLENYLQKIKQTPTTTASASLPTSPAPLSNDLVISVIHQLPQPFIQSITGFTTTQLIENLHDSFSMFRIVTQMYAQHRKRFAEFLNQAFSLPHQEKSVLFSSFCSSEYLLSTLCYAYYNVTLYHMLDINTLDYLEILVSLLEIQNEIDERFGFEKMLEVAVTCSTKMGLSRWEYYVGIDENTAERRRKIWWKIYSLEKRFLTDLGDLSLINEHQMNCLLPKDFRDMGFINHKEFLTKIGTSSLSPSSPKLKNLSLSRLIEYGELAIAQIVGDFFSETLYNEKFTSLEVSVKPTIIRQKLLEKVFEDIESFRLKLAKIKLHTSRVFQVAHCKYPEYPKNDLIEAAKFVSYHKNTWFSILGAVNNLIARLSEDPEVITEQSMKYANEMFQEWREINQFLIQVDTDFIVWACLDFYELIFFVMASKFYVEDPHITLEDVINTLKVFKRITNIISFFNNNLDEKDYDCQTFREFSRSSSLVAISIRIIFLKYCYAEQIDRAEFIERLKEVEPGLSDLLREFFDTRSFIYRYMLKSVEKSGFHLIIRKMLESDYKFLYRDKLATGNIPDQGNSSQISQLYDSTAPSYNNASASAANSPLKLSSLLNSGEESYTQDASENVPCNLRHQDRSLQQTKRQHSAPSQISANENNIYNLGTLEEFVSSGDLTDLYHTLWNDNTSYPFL
# Test: PBM E-score (8-mer binding enrichment) (E-score (-0.5 to 0.5)); higher = stronger / more preferred TF binding; most listed sequences are background and not binding sites
# Conditions: protein concentration: 200 nM; construct: GST-full length
# Method in brief: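 GST-tagged yeast TFs (full-length or DNA-binding domain) were made by PURExpress in vitro transcription/translation and applied at about 100-200 nM to universal all-10-mer Agilent arrays. The arrays were made double-stranded by primer extension, on fresh or once-stripped slides. Bound protein was detected with fluorescent anti-GST, and scans were normalised with masliner. Each ungapped eight-base word, pooled with its reverse complement, received an E-score (modified Wilcoxon-Mann-Whitney statistic) from the Universal PBM Analysis Suite.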
row,Sequence,PBM E-score
1,ATCACGGG,0.0804
2,CGACGGCA,0.138
3,GAAATGCA,0.0293
4,GCGCTGCC,-0.0982
5,CAATCGAG,-0.129
6,ACCATGTC,-0.0507
7,CGGTTTTA,0.162
8,CATTCCCC,0.213
9,GCGTGACA,-0.029
10,CTGCTATA,0.138
11,CCTAAGCA,-0.174
12,CACTGTAC,-0.34
13,CATAATGC,-0.0347
14,ACGTTGCT,-0.086
15,GGCAGGAC,0.0548
16,GCCTCCCA,-0.199
17,GAACGACA,-0.144
18,CACTACGA,-0.152
19,GAAGCTGA,0.143
20,GGATTAGA,0.0234
21,AGATAACG,0.251
22,GATTTACA,0.0545
23,AGTTTTTG,-0.0169
24,GCACCGAC,0.104
25,AAAAGTGC,-0.0754

row,Sequence,PBM E-score
1,GAATCATA,0.0241
2,CATCACTA,-0.11
3,GTCATAAC,-0.105
4,CCACCGGG,0.257
5,CATTTAAA,0.227
6,CCGGTTTA,0.179
7,AGGCCAGA,0.03
8,ATTACTTA,0.119
9,CTTATTTC,0.0132
10,CGTTACCA,-0.149
11,CCGTACCA,0.218
12,AACCCGCG,0.431
13,CGGTGACA,0.189
14,AACATGTG,-0.00722
15,CATAGCAC,-0.0394
16,CCCCGACG,0.29
17,CTAAACAG,-0.168
18,CTAGACGC,-0.112
19,CTAAAGAG,-0.217
20,GGGGTCTA,0.113
21,GTATCCCA,-0.125
22,CACTACTA,-0.00853
23,AAAGGCAA,-0.0369
24,ATTCGCAA,0.0328
25,CACCCATG,-0.0494

row,Sequence,PBM E-score
1,ACAGAAAA,0.0337
2,AGATCATA,0.0299
3,CCGCAAGA,0.198
4,AATATAGA,-0.142
5,AAACTCCT,-0.184
6,GCATAGCA,-0.116
7,AGGTGCAC,0.0686
8,AAGTTTAT,0.146
9,GACCTTGC,-0.0483
10,GTTACAGA,-0.12
11,ATCTCTCG,0.108
12,CCCACGCC,-0.256
13,ATACGAAT,-0.186
14,TCGATTCA,-0.103
15,CCTCATCA,-0.0597
16,GTAAAGAA,-0.0704
17,CGAATGAC,0.212
18,CGTAGCTC,-0.0575
19,AAGAAGGC,-0.163
20,CATTTAAG,-0.195
21,GGGAATTA,0.118
22,GACGCCTC,-0.0418
23,CACTCTAA,-0.0846
24,ACCGTTAC,-0.0675
25,GCAGTTAC,0.0186

row,Sequence,PBM E-score
1,CATTATAG,0.0527
2,GGCAGGGA,-0.0639
3,ACGCGACC,-0.0942
4,CAATCGCG,0.0713
5,CGTCGAGC,-5e-05
6,TAACCCAA,-0.112
7,TCATGGCA,-0.102
8,CCCAATTC,0.0979
9,AGTAAGGA,-0.0722
10,ATGACTTC,-0.041
11,CGCAAGCC,0.128
12,ACTTTCCT,-0.151
13,GACGGCAA,0.17
14,GTGACTTA,-0.223
15,ACGCCTGA,-0.148
16,CATTTGGC,-0.0213
17,AAGGTAAG,-0.114
18,TATGCGCA,0.0456
19,GGCAAAGA,0.0107
20,ACACGTCG,-0.115
21,GAGTGGCC,0.0648
22,AATGGTTC,0.00276
23,AGTGCGTG,-0.041
24,GACCGAAC,0.111
25,ATGAGACA,0.0105

row,Sequence,PBM E-score
1,GCATCGCC,0.112
2,AGTAGTAC,0.0868
3,CAATAAGC,0.0303
4,ATATGAGC,-0.00823
5,GGCATACC,-0.0447
6,AAGGTTAT,-0.0398
7,AACCGAGT,-0.0335
8,CAAAGCTG,0.0146
9,CCTGCGTA,-0.12
10,AACTGTTA,-0.178
11,GCTTTAGA,-0.238
12,AGGATATA,-0.0249
13,CCAGTGTA,-0.0646
14,ACAGCATG,0.0163
15,AATAGCCT,-0.161
16,TCAGTTAA,-0.154
17,ACTGCATG,-0.0506
18,CCATCTGA,-0.0777
19,CAAGCAAA,-0.0569
20,TTCAAAAA,-0.0428
21,TAAGCTTA,-0.0256
22,CACACATC,-0.152
23,GTCGGACA,0.218
24,TGGAGACA,-0.147
25,CGGGACAC,0.245

row,Sequence,PBM E-score
1,CAATGTTA,-0.17
2,AAAACTGG,0.0632
3,ACCTCGCC,-0.0532
4,ACAGCACT,-0.116
5,TATACATA,-0.162
6,CGAAGCAC,0.0235
7,GGCGACCA,-0.174
8,GGCTGTTA,0.0369
9,GTAGAACA,-0.263
10,AACTAATT,0.0698
11,CGTCGTTA,0.0289
12,GCTTTCTA,0.0134
13,CACACAAG,-0.0692
14,GCGTGCGA,-0.0633
15,GGAGGAAA,0.0123
16,GTGCTGCA,-0.00698
17,CCCGGAGA,0.387
18,CGTGAAAA,0.0541
19,GCTGACGA,-0.203
20,ATCAGGGC,-0.117
21,CTTCATCA,0.0769
22,CGATAGGC,-0.216
23,AGGGACTA,-0.133
24,ATGGTGAC,-0.245
25,CAGAACTC,-0.0575

row,Sequence,PBM E-score
1,AATGATGG,0.102
2,AATTCCCG,0.298
3,CAAGAATG,0.0114
4,GATAACAC,0.0362
5,AGGTATCC,0.166
6,ACATACAC,-0.0402
7,CGTTTACC,-0.016
8,GATCCAAC,0.0435
9,CTGAGCAG,-0.103
10,CTTACAAC,-0.202
11,AACGCCGC,0.163
12,CCCTATAG,-0.0512
13,GTAGTAAC,-0.0648
14,CACAAGGA,-0.0715
15,ACTGGGGG,-0.231
16,AATTGCGG,0.155
17,GTTCGAGA,-0.046
18,ATAAAGCC,-0.122
19,AACTTCCT,-0.108
20,CAGTAGAA,-0.203
21,CGGGTGAC,0.249
22,GCGACGCC,0.153
